According to PubChem BioAssay AID2147 (National Center for Advancing Translational Sciences (NCATS), 2009):
Screen size: about 230,000 compounds; about 3,600 (1.6%) were called active. This list was built around the results that the source calls inconclusive (neither active nor inactive); the mix of calls is not that of the screen. The call rests on the fitted dose curve; in most records, active means well fitted inhibition curve with a large enough effect (not every such curve was filed as active); inconclusive means small, poorly fitted or top-dose-only effect, or another doubt; inactive means no such curve, though single readings can be large or run the other way. Where the call is inconclusive, the potency comes from a doubtful curve fit.
Further: nearly all actives have a fitted effect of over 50% in size.
Potency means the concentration at half of the fitted maximal effect; tags describe the fitted curve by direction and shape.
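Wherever activity change, negative = inhibition is given: 0% = wells with enzyme and -100% = buffer wells without enzyme.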

What follows are compounds tested against Lysine-specific demethylase 4E (Homo sapiens) (UniProt B2RXH2) (assay: qHTS Assay for Inhibitors of Human Jumonji Domain Containing 2E (JMJD2E)). Conditions: JMJD2E catalytic domain, FDH-coupled NADH fluorescence (FDH is formaldehyde dehydrogenase); series mostly up to 57.1 µM; activity change, negative = inhibition: at the top concentration.
UniProt B2RXH2, sequence (B2RXH2 whole entry, looked up, the tested form may be a part): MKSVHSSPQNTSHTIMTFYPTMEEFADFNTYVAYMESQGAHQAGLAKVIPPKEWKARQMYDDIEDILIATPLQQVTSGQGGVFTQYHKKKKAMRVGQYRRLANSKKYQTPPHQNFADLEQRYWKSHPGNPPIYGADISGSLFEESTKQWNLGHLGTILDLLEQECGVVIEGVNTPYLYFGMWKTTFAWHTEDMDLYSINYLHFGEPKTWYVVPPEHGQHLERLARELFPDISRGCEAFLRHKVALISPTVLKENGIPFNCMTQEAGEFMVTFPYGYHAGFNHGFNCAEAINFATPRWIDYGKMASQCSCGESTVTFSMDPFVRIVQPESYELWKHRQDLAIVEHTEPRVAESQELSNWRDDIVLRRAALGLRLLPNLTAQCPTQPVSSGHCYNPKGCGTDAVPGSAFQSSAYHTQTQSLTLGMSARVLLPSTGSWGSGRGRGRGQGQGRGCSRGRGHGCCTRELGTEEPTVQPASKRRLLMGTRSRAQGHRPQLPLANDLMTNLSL
`N#C/C(=C(/O)COC(=O)CCc1ccc(S(=O)(=O)N2CCOCC2)cc1)c1nc2ccccc2[nH]1` was tested, and the Potency was inconclusive: 28.2 µM [inhibitor, single point]. For `CCn1c(-c2c[nH]c3ccccc23)n[nH]c1=S`, the “activity change, negative = inhibition” value was inactive: -8.89%. In the case of `O=c1c2ccccc2nc(/C=C/c2ccc3c(c2)OCO3)n1CCCO`, the “activity change, negative = inhibition” value is reported as inactive: -23.1%. In the case of `Cc1ccc2cc(CN(CC3CCCO3)C(=O)C(C)C)c(=O)[nH]c2c1` (configuration not stated), the Potency is reported as inconclusive: 31.6 µM [inhibitor, single point]. `O=C(Cc1c2ccccc2nc2ccccc12)c1ccccc1` was tested, and the Potency was inconclusive: 31.6 µM [inhibitor, single point]. `O=C(CCCn1c(=S)[nH]c2ccccc2c1=O)N1CCCCC1` was tested, and the “activity change, negative = inhibition” value was inactive: -4%. In the case of `CC(=O)NNC(=O)c1cc2c3ccccc3n(C)c2s1`, the Potency is reported as inconclusive: 31.6 µM [inhibitor, partial curve]. `COc1ccc(C)cc1NC(=O)c1ccc([N+](=O)[O-])cc1[N+](=O)[O-]` was tested, and the “activity change, negative = inhibition” value was inactive: 8.1%. With `C#CCOc1ccc(C2C3=C(COC3=O)Nc3cc4c(cc32)OCO4)cc1OC` (configuration not stated) the Potency was inconclusive: 28.2 µM [inhibitor, partial curve]. With `CCOC(=O)c1c(NC(=S)Nc2ccccc2)sc2c1CCN(C)C2` the Potency was inconclusive: 25.1 µM [inhibitor, single point]. `C=CCOC(=O)C1=C(C)Nc2nnnn2C1c1ccc(OC)cc1OC` (configuration not stated) was tested, and the “activity change, negative = inhibition” value was inactive: -6.72%. In the case of `OC1CCCN(CC(O)c2ccccc2)C1` (configuration not stated), the Potency is reported as inconclusive: 35.5 µM [inhibitor, single point]. With `CC(C)C(=O)N(Cc1cc2ccccc2[nH]c1=O)C(C)(C)C` the Potency was inconclusive: 39.8 µM [inhibitor, single point]. `O=C(CSc1nc2[nH]ncc2c(=O)[nH]1)c1ccccc1` was tested, and the “activity change, negative = inhibition” value was inactive: -4.89%. For `CC(C)(C)[C@H]1C=C(C(=O)NCc2nc3ccccc3[nH]2)O[C@@H](OCCCCO)C1`, the Potency was inconclusive: 39.8 µM [inhibitor, single point]. For `C=CCc1cccc(/C=N/NC(=O)CNc2ccccc2)c1O`, the Potency was inconclusive: 14.1 µM [inhibitor, partial curve]. `CC(C)(C)NC(=O)COc1ccc(CNCc2cccnc2)cc1` was tested, and the Potency was inconclusive: 35.5 µM [inhibitor, single point]. For `Cc1ccc(C(NC(=O)NC(C)c2ccccc2)C(Cl)(Cl)Cl)cc1F` (configuration not stated), the “activity change, negative = inhibition” value was inactive: -2.97%. For `O=C(O)c1cc2nc(-c3ccccc3)cc(-c3ccccc3)n2n1`, the Potency was inconclusive: 22.4 µM [inhibitor, partial curve]. With `COc1ccc(-c2nc(C)sc2C)cc1` the “activity change, negative = inhibition” value was inactive: -14%. In the case of `COc1cccc([C@@H]2Oc3ccc(Br)cc3C(=O)[C@H]2OC(=O)NCCOc2ccccc2)c1`, the Potency is reported as inconclusive: 39.8 µM [inhibitor, single point]. With `Cc1nnc(C)n1/N=C/c1cc2ccccc2nc1Cl` the Potency was inconclusive: 39.8 µM [inhibitor, single point]. With `CC(C)c1ccc(/C=C/C(=O)NC(=S)Nc2ccc(CN3CCOCC3)cc2)cc1` the “activity change, negative = inhibition” value was inactive: 0.552%. For `CCCn1nnc(NC(=O)/C=C/c2cc(Br)ccc2OC)n1`, the Potency was inconclusive: 39.8 µM [inhibitor, single point]. For `COC(=O)C1CCN(C(c2ccc(OC)c(OC)c2)c2sc3nc(C)nn3c2O)CC1` (configuration not stated), the “activity change, negative = inhibition” value was inactive: -1.35%. `CCc1ccc(CCC(=O)Nc2sc(C)c(C)c2C(=O)OC)o1` was tested, and the Potency was inconclusive: 39.8 µM [inhibitor, single point]. In the case of `COc1ccc(N2CCN(CCCNC(=O)C3CCCN(S(=O)(=O)c4cnc[nH]4)C3)CC2)cc1` (configuration not stated), the Potency is reported as inconclusive: 39.8 µM [inhibitor, single point]. In the case of `CCN1C(=O)/C(=C\c2nc3ccccc3c(=O)n2CC)c2ccccc21`, the Potency is reported as inconclusive: 28.2 µM [inhibitor, single point]. With `COC(=O)CCCC1=CC2=C(c3ccccc3)C(=O)C(C)(OC(=O)C3CCCC3)C(=O)C2=CN1C1CCCCC1` (configuration not stated) the Potency was inconclusive: 7.08 µM [inhibitor, single point]. With `CCOc1ccc(S(=O)(=O)Nc2ccccc2C(=O)NCC2CCCO2)cc1` (configuration not stated) the Potency was inconclusive: 28.2 µM [inhibitor, partial curve]. `CC(=O)N1CCN(c2cc3c(cc2F)c(=O)c(C(=O)O)cn3C2CC2)CC1` was tested, and the Potency was inconclusive: 3.16 µM [inhibitor, full curve]. In the case of `O=C(O)CC(CCc1ccccc1)OC1OC(CO)C(O)C(O)C1O` (configuration not stated), the Potency is reported as active: 25.1 µM. For `COC(=O)c1cc(=O)nc2sc(-c3ccc(F)cc3)nn12`, the Potency was inconclusive: 28.2 µM [inhibitor, partial curve]. In the case of `O=C(CSc1nc(C2CC2)nc2sc3c(c12)CCCC3)NCc1ccco1`, the “activity change, negative = inhibition” value is reported as inactive: -0.925%. For `Cc1ncc(CO)c(/C=N/N=C/c2ccccc2O)c1O`, the “activity change, negative = inhibition” value was inactive: -12.7%. In the case of `Cc1cccc2cc(CN(CCCO)C(=O)Nc3cccc(Cl)c3)c(=O)[nH]c12`, the Potency is reported as inconclusive: 39.8 µM [inhibitor, single point]. With `Cc1cccc(NC(=O)CSc2nnc(-c3ccco3)c(-c3ccco3)n2)c1C` the Potency was inconclusive: 10 µM [inhibitor, partial curve]. With `O=C(Nc1cc(Sc2ccccn2)cc([N+](=O)[O-])c1)c1ccc(Cl)cc1` the “activity change, negative = inhibition” value was inactive: 0.155%. For `CCCn1c(=O)c(C(=O)NNS(=O)(=O)c2ccc(Cl)cc2)c(O)c2ccccc21`, the Potency was inconclusive: 35.5 µM [inhibitor, single point]. For `CCOC(=O)C1=C(C)NC(C)=C(C(=O)OCC)C1C(=O)OCC(=O)N(CC)C1CCS(=O)(=O)C1` (configuration not stated), the Potency was inconclusive: 22.4 µM [inhibitor, partial curve]. In the case of `COCCN1C=C2C(=O)C(C)(OC(=O)CCC(=O)OC)C(=O)C(Br)=C2C=C1c1ccc(OC)cc1` (configuration not stated), the Potency is reported as inconclusive: 3.55 µM [inhibitor, single point]. For `O=C(NCc1cccs1)c1cccn2c(=O)c3sccc3nc12`, the Potency was inconclusive: 35.5 µM [inhibitor, partial curve]. With `Cc1ccc2c(c1)COc1c3ccc(C(=O)NC(C)C)cc3nn1-2` the Potency was inconclusive: 31.6 µM [inhibitor, partial curve]. In the case of `Cc1ccc(-n2c(O)c(C=Nc3ccc(S(=O)(=O)Nc4ncccn4)cc3)c3ccccc3c2=O)cc1C`, the Potency is reported as inconclusive: 31.6 µM [inhibitor, partial curve]. With `Cc1ccc2cc(C(c3nnnn3Cc3ccccc3)N3CCN(c4ccccc4)CC3)c(=O)[nH]c2c1` (configuration not stated) the Potency was inconclusive: 39.8 µM [inhibitor, single point]. `CN(C)CCCNC(=O)c1cc2c3ccccc3n(C)c2s1` was tested, and the Potency was inconclusive: 28.2 µM [inhibitor, partial curve]. With `Cc1ncc(CO)c(C=O)c1O` the Potency was inconclusive: 31.6 µM [inhibitor, partial curve]. `CCC1(CC)Cc2ccccc2-c2nc(NN)[nH]c(=O)c21` was tested, and the Potency was inconclusive: 20 µM [inhibitor, partial curve]. With `Cc1cc(C)c(C2C3=C(Nc4c2c(C)nn4-c2ccccn2)c2ccccc2C3=O)c(C)c1` (configuration not stated) the Potency was inconclusive: 28.2 µM [inhibitor, single point]. For `COCCN(CCOC)S(=O)(=O)c1ccc(C(=O)Nc2nc3c(s2)CCc2ccccc2-3)cc1`, the Potency was inconclusive: 31.6 µM [inhibitor, partial curve]. In the case of `Cc1cc(C(=O)N/N=C/c2ccc(-c3ccccc3Cl)o2)n[nH]1`, the Potency is reported as inconclusive: 31.6 µM [inhibitor, partial curve]. `O=C(COC(=O)c1ccccc1NC(=O)c1ccco1)NCc1ccc2c(c1)OCO2` was tested, and the Potency was inconclusive: 31.6 µM [inhibitor, partial curve]. `C=CCn1c(O)c(CN2CCOCC2)c(C)c(C#N)c1=O` was tested, and the Potency was inconclusive: 28.2 µM [inhibitor, partial curve]. In the case of `CCOC(=O)c1cc(-c2ccccc2)nc2c1c(C)nn2-c1ccccn1`, the Potency is reported as inconclusive: 35.5 µM [inhibitor, partial curve]. With `O=C(O)c1cccc2c(-c3ccccc3)c(-c3ccccc3)[nH]c12` the Potency was inconclusive: 28.2 µM [inhibitor, partial curve]. With `CCC(C)NC(=O)CSC1=Nc2ccccc2C2=NC(CC(=O)NCc3ccc(F)cc3)C(=O)N12` (configuration not stated) the Potency was inconclusive: 28.2 µM [inhibitor, partial curve]. With `O=[N+]([O-])c1cc([N+](=O)[O-])c2c(=Nc3ccccc3)n(-c3ccccc3)n(O)c2c1` the Potency was inconclusive: 39.8 µM [inhibitor, single point]. In the case of `N#Cc1cnc(NN)nc1`, the Potency is reported as inconclusive: 39.8 µM [inhibitor, single point]. In the case of `COCC(=O)Nc1nc2n(n1)C(c1ccccc1)CC(c1ccc(OC)cc1)N2` (configuration not stated), the Potency is reported as inconclusive: 28.2 µM [inhibitor, partial curve]. With `COc1ccc(NC(=O)Nc2cc3oc4ccccc4c3cc2OC)cc1` the Potency was inconclusive: 28.2 µM [inhibitor, single point]. For `COc1ccc(OC)c(-c2csc(NC(=O)CSc3ccc([N+](=O)[O-])cc3)n2)c1`, the “activity change, negative = inhibition” value was inactive: -5.36%. `O=C(CSCc1ccccc1)Nc1cc([N+](=O)[O-])ccc1F` was tested, and the Potency was inconclusive: 39.8 µM [inhibitor, single point]. With `c1cncc(-c2nc(N3CCOCC3)c3c4c(sc3n2)CCC4)c1` the Potency was inconclusive: 3.16 µM [inhibitor, full curve]. `CC1=C(C#N)C(c2cccnc2)C2=C(CC(c3ccc(Cl)cc3)CC2=O)N1` (configuration not stated) was tested, and the Potency was inconclusive: 25.1 µM [inhibitor, partial curve]. `O=C(CSc1nnc(-c2c[nH]c3ccccc23)o1)N(Cc1ccccc1)c1ccc(F)cc1` was tested, and the “activity change, negative = inhibition” value was inactive: 1.89%. In the case of `COCCSc1ccccc1C(=O)Nc1ccc(Cl)cc1`, the “activity change, negative = inhibition” value is reported as inactive: -14.3%. With `O=C(CSc1n[nH]c(=O)[nH]c1=O)NC1CCCCC1` the “activity change, negative = inhibition” value was inactive: 12.4%.
